This data set deals with ATP. Description: switch fluorescence ratio, 500 uM ATP over buffer (Cy3 cluster intensity, sum of 5 cycles each) (fold (ratio)); higher = stronger signal-on switching upon ATP binding; sequences stand for … in TCGTCGGCAGCGTCAGATGTGTATAAGAGACAGTTTTTTTTTTTTTTTTTTTTTTTTT…TC. Conditions: aptamer strand: ATP DNA aptamer (quencher-CACCTGGGGGAGTATTGCGGAGGAAGG + anchor), 100 nM annealed; ATP concentration: 500 uM; one replicate. An outline of the steps:
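Imaging in selection buffer was followed by imaging after 15 min with 500 uM ATP at 22 °C, for Cy3-labelled switching-strand clusters annealed to 100 nM quencher-labelled ATP aptamer on a modified Illumina MiSeq flow-cell. Five of these buffer/ATP cycles ran, separated by NaOH stripping and re-annealing. The fluorescence ratio per cluster is summed target-cycle over summed buffer-cycle Cy3 intensity, averaged per switch-domain sequence; clusters outside 100-1000 RFU were removed.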

Sequences with one replicate were seen in a single cluster, so their values are uncertain.
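Note: ATP exposure 15 min at 22 °C before imaging.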

Turning to TGTTATGGAT, the switch fluorescence ratio is 1.02.
Under AGTCCATTCC stands 1.4.
As for GGCCTTTGTG, the figure is 0.929; as for CGGTCGC, 0.968.
As for GCTAATTTGT, the figure is 1.02; as for GGAGCATTCA, 1.32; as for ATGGCGCTGA, 1.01.
In the case of CCTTTAGTA, the switch fluorescence ratio came out at 0.98.
Under CATGGGGAGG stands 1.01; under TATAAACGAG, 1.02; under GATGATTTTT, 0.993.
With GACTTGTAAT, the switch fluorescence ratio was determined as 1.04.
As for CTAGTGGGCC, the figure is 1; as for GATGGTTCTA, 0.944; as for TACAGGTGTA, 1.39.
As for GACAATGCAA, the figure is 2.94; as for GTTTAATTAT, 0.974.
As for TTCACGTACA, the figure is 1.66; as for TGTCGAGCTA, 0.992.
TTCGATTA: the switch fluorescence ratio was 0.992.
Under GGAGCCTATG stands 1.02.
Take GAGGCTACAT: the switch fluorescence ratio was determined as 1.04.
Under TGGGATGGCA stands 0.948.
Under ATAACGCTA stands 1.16; under ACCGCTCGAT, 1.08; under CAGGTGGTGC, 1.09.
Consider TTCCGGCTTG, for which the switch fluorescence ratio came to 1.02.
As for CTGATCGCAG, the figure is 5.78; as for ACCTTGTAG, 1.02; as for CGCTAATTCT, 1.53.
As for TCAAATGTGT, the figure is 1.04; as for TTGCTCCAGA, 0.967.
ACGGGTTGGA: the switch fluorescence ratio was determined as 1.03.
As for AGCGGGTCGT, the figure is 1.06; as for ACGTTGGACT, 1.07.
As for ATCGTAGAG, the figure is 0.945.
Under ATAAGTCTAC stands 1.04.
Turning to TCGAACAGCT, the switch fluorescence ratio worked out at 0.992.
As for GCCTGCAGAA, the figure is 1.01.
As for ATTCCGACA, the figure is 1.04; as for TAGTTCCTTT, 1.01; as for CGATTTAGTG, 0.972.
As for GATGAAAGTA, the switch fluorescence ratio is 0.978.
Under CGGGGCTGAG stands 0.995.
As for ATTAATCACG, the figure is 1.08; as for TTTAGCTCAC, 1.02.
As for CGAAGTATGT, the figure is 0.955.
Turning to TTCGGGCCTA, the switch fluorescence ratio was determined as 1.01.
Under GGGGAAGACC stands 0.951.
Regarding TTGCCAGTGG, the switch fluorescence ratio stood at 1.09.
As to CATCAGACCC, the switch fluorescence ratio amounted to 1.03.
As for AAAGAAGACC, the figure is 1; as for CGATGTGAGC, 1.06.
Under CGACCCGGAT stands 0.973.
Under TCGTAAAAGC stands 1.09; under CTTATCGCGC, 0.963.
ATTGTAGAA: the switch fluorescence ratio turned out to be 0.964.
Under CTGAAGTGTG stands 1.03; under CAGTTCGCCG, 1.04.
In the case of AGTGGCTGGC, the switch fluorescence ratio stood at 1.01.
For TAAATTGG, the switch fluorescence ratio turned out to be 1.
For ATTGTGACGG, the switch fluorescence ratio was 1.01.
Regarding CACTCGATGA, the switch fluorescence ratio was determined as 0.984.
Under GCCGTCTATG stands 0.998; under CGACCAGACA, 1.1.
As for ATTGGCTCCT, the figure is 1.03; as for TGTGTAGATG, 1.02.

Values taken from the supplement of paper PMC10126150.
